IC50 is the fitted dose that halves viability relative to control wells, and lower means more sensitive; a fit beyond the top or the lowest dose is shown as a bound at that dose. AUC sums up the same curve from the lowest dose to the 256-fold higher top dose; values near 1 show little effect. For some assays here: An inferred top dose comes from the curve model; the source does not state it.
Legend:
Assay in all cases: Viability of human cancer cell lines after 72 h of drug (GDSC screen)
Phenformin = compound: N=C(N)NC(=N)NCCc1ccccc1 [Phenformin]; settings: top dose 4000 µM; top dose inferred
Protocol: (§1)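 Human cancer cell lines in 384-well plates, medium with 10% serum, drug for 72 h over a 256-fold dose range (nine 2-fold or five 4-fold steps up to the top dose). Adherent lines were fixed and stained with the nucleic acid dye Syto60, suspension lines read with resazurin; signal relative to control wells, capped at 0 and 100%. One two-parameter sigmoid per drug and line, fitted in a mixed model over all curves with the slope shared within a line.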

WHI-P97 = compound: COc1cc2ncnc(Nc3cc(Br)c(O)c(Br)c3)c2cc1OC [WHI-P97]; settings: top dose 10.24 µM; top dose inferred
Protocol: as §1

Erlotinib = compound: C#Cc1cccc(Nc2ncnc3cc(OCCOC)c(OCCOC)cc23)c1 [Erlotinib]; settings: top dose 2 µM
Protocol: as §1

EHT 1864 = compound: O=c1cc(CN2CCOCC2)occ1OCCCCCSc1ccnc2cc(C(F)(F)F)ccc12 [EHT 1864]; settings: top dose 10 µM; top dose inferred
Protocol: as §1

NU-7441 = compound: O=c1cc(N2CCOCC2)oc2c(-c3cccc4c3sc3ccccc34)cccc12 [NU-7441]; settings: top dose 2 µM; top dose inferred
Protocol: as §1

AG-014699 = compound: CNCc1ccc(-c2[nH]c3cc(F)cc4c3c2CCNC4=O)cc1 [AG-014699]; settings: top dose 5 µM; top dose inferred
Protocol: as §1

S-Trityl-L-cysteine = compound: N[C@@H](CSC(c1ccccc1)(c1ccccc1)c1ccccc1)C(=O)O [S-Trityl-L-cysteine]; settings: top dose 5.12 µM; top dose inferred
Protocol: as §1

XL-184 = compound: COc1cc2nccc(Oc3ccc(NC(=O)C4(C(=O)Nc5ccc(F)cc5)CC4)cc3)c2cc1OC [XL-184]; settings: top dose 5.12 µM; top dose inferred
Protocol: as §1

Gefitinib = compound: COc1cc2ncnc(Nc3ccc(F)c(Cl)c3)c2cc1OCCCN1CCOCC1 [Gefitinib]; settings: top dose 0.5 µM
Protocol: as §1

QL-XI-92 = compound: C=CC(=O)Nc1cc(NC(=O)c2ccc(C)c(NC(=O)c3ccno3)c2)cc(C(F)(F)F)c1 [QL-XI-92]; settings: top dose 10.24 µM; top dose inferred
Protocol: as §1

Vinorelbine = compound: CCC1=C[C@@H]2CN(C1)Cc1c([nH]c3ccccc13)[C@@](C(=O)OC)(c1cc3c(cc1OC)N(C)[C@H]1[C@@](O)(C(=O)OC)[C@H](OC(C)=O)[C@]4(CC)C=CCN5CC[C@]31[C@@H]54)C2 [Vinorelbine]; settings: top dose 0.064 µM; top dose inferred
Protocol: as §1

Row | Cell Line | AUC (Phenformin) | IC50 (Phenformin) [µM] | AUC (WHI-P97) | IC50 (WHI-P97) [µM] | AUC (Erlotinib) | IC50 (Erlotinib) [µM] | AUC (EHT 1864) | IC50 (EHT 1864) [µM] | AUC (NU-7441) | IC50 (NU-7441) [µM] | AUC (AG-014699) | IC50 (AG-014699) [µM] | AUC (S-Trityl-L-cysteine) | IC50 (S-Trityl-L-cysteine) [µM] | AUC (XL-184) | IC50 (XL-184) [µM] | AUC (Gefitinib) | IC50 (Gefitinib) [µM] | AUC (QL-XI-92) | IC50 (QL-XI-92) [µM] | AUC (Vinorelbine) | IC50 (Vinorelbine) [µM]
1 | NAMALWA (Burkitt lymphoma, suspension) | 0.382 | 126 | 0.991 | > 10.2 | 0.987 | > 2 | 0.987 | > 10 | 0.98 | > 2 | 0.991 | > 5 | 0.557 | 0.445 | 0.944 | > 5.12 | 0.988 | > 0.5 | 0.878 | 7.62 | 0.641 | 0.00917
2 | NB10 (neuroblastoma, adherent) | 0.931 | > 4000 | 0.988 | > 10.2 | 0.823 | 1.15 | 0.941 | > 10 | 0.984 | > 2 | 0.915 | > 5 | 0.97 | > 5.12 | 0.93 | > 5.12 | 0.943 | > 0.5 | 0.988 | > 10.2 | 0.918 | > 0.064
3 | NB(TU)1-10 (neuroblastoma, adherent) | 0.993 | > 4000 | 0.959 | > 10.2 | 0.991 | > 2 | 0.956 | > 10 | 0.986 | > 2 | 0.992 | > 5 | 0.884 | 4.26 | 0.857 | 3.3 | 0.968 | > 0.5 | 0.993 | > 10.2 | 0.909 | > 0.064
4 | NCI-H82 (small cell lung carcinoma, suspension) | 0.672 | 733 | 0.987 | > 10.2 | 0.95 | > 2 | 0.978 | > 10 | 0.974 | > 2 | 0.989 | > 5 | 0.716 | 1.25 | 0.984 | > 5.12 | 0.97 | > 0.5 | 0.983 | > 10.2 | 0.883 | 0.0626
5 | NCI-H209 (small cell lung carcinoma, suspension) | 0.975 | > 4000 | 0.962 | > 10.2 | 0.93 | > 2 | 0.966 | > 10 | 0.967 | > 2 | 0.712 | 1.3 | 0.867 | > 5.12 | 0.924 | > 5.12 | 0.971 | > 0.5 | 0.847 | 8.39 | 0.813 | 0.0376
